The other results are listed elsewhere or left out. Many values rest on one well or one pass, so single values are uncertain.
Experiments:
Test in all cases: cell count relative to DMSO control; melanoma cells; higher = more viable cells
Conditions in all cases: library dose: low library concentration; 72 h
MZ2-MEL = test system: MZ2-MEL
MeWo = test system: MeWo
RPMI7951 = test system: RPMI7951
RVH-421 = test system: RVH-421
SkMel28 = test system: SkMel28
SkMel2 = test system: SkMel2
SkMel30 = test system: SkMel30
UACC62 = test system: UACC62
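Further: cell number obtained by counting DAPI-stained nuclei in high-throughput microscope images with image analysis software, screen run in 1,536-well plates.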

Row | SMILES | cell count (MZ2-MEL) | cell count (MeWo) | cell count (RPMI7951) | cell count (RVH-421) | cell count (SkMel28) | cell count (SkMel2) | cell count (SkMel30) | cell count (UACC62)
1 | CC(=O)O[C@@]12CO[C@@H]1C[C@H](O)[C@@]1(C)C(=O)[C@H](O)C3=C(C)[C@@H](OC(=O)[C@H](O)[C@@H](NC(=O)OC(C)(C)C)c4ccccc4)C[C@@](O)([C@@H](OC(=O)c4ccccc4)[C@H]21)C3(C)C [Docetaxel] + COCC[n+]1c2c(n(Cc3cnccn3)c1C)C(=O)c1ccccc1C2=O [YM155] (first compound 0.0001 µM, partner dose 0.0004 µM) | 33.7% | 41.1% | 37.5% | 64.9% | 32.5% | 35.2% | 33% | 45.7%
2 | Nc1ncn([C@H]2C[C@H](O)[C@@H](CO)O2)c(=O)n1 [decitabine] + C[C@]1(c2nc3c(C(N)=O)cccc3[nH]2)CCCN1 [Veliparib] (first compound 0.1 µM, partner dose 1.4 µM) | 83.4% | 120% | 85.7% | 87% | 82.2% | 93.8% | 86.8% | 66.1%
3 | CC(=O)O[C@@]12CO[C@@H]1C[C@H](O)[C@@]1(C)C(=O)[C@H](O)C3=C(C)[C@@H](OC(=O)[C@H](O)[C@@H](NC(=O)OC(C)(C)C)c4ccccc4)C[C@@](O)([C@@H](OC(=O)c4ccccc4)[C@H]21)C3(C)C [Docetaxel] + COc1ccc(Cl)c(Nc2nc3ccccc3nc2NS(=O)(=O)c2cccc(NC(=O)C(C)(C)N)c2)c1 [XL147] (first compound 0.0001 µM, partner dose 0.8 µM) | 49.6% | 49.7% | 35.7% | 81.9% | 57.1% | 55.9% | 33.9% | 45.1%
4 | Nc1nc(F)nc2c1ncn2[C@@H]1O[C@H](CO)[C@@H](O)[C@@H]1O [fludarabine] + COc1ccc(Cl)c(Nc2nc3ccccc3nc2NS(=O)(=O)c2cccc(NC(=O)C(C)(C)N)c2)c1 [XL147] (first compound 0.2 µM, partner dose 0.8 µM) | 98.7% | 29% | 89.2% | 106% | 72.8% | 5.53% | 20.3% | 83.4%
5 | CC(=O)O[C@@]12CO[C@@H]1C[C@H](O)[C@@]1(C)C(=O)[C@H](O)C3=C(C)[C@@H](OC(=O)[C@H](O)[C@@H](NC(=O)OC(C)(C)C)c4ccccc4)C[C@@](O)([C@@H](OC(=O)c4ccccc4)[C@H]21)C3(C)C [Docetaxel] + Cc1nc(Nc2ncc(C(=O)Nc3c(C)cccc3Cl)s2)cc(N2CCN(CCO)CC2)n1 [dasatanib] (first compound 0.0001 µM, partner dose 0.004 µM) | 38% | 46.4% | 26.8% | 57.4% | 42.6% | 36.8% | 37.4% | 47.2%
6 | Nc1nc(F)nc2c1ncn2[C@@H]1O[C@H](CO)[C@@H](O)[C@@H]1O [fludarabine] + Nc1cccc2c1CN(C1CCC(=O)NC1=O)C2=O [lenalidomide] (first compound 0.2 µM, partner dose 1 µM) | 95% | 24.6% | 101% | 96% | 67.3% | 3.17% | 12.3% | 89.5%
7 | CC(=O)O[C@@]12CO[C@@H]1C[C@H](O)[C@@]1(C)C(=O)[C@H](O)C3=C(C)[C@@H](OC(=O)[C@H](O)[C@@H](NC(=O)OC(C)(C)C)c4ccccc4)C[C@@](O)([C@@H](OC(=O)c4ccccc4)[C@H]21)C3(C)C [Docetaxel] + CS(=O)(=O)CCNCc1ccc(-c2ccc3ncnc(Nc4ccc(OCc5cccc(F)c5)c(Cl)c4)c3c2)o1 [lapatinib] (first compound 0.0001 µM, partner dose 0.8 µM) | 45.4% | 40.4% | 43% | 73% | 34.5% | 36.7% | 32.6% | 48.3%
8 | Nc1nc(F)nc2c1ncn2[C@@H]1O[C@H](CO)[C@@H](O)[C@@H]1O [fludarabine] + Clc1ccc(Nc2nnc(Cc3ccncc3)c3ccccc23)cc1 [vatalanib] (first compound 0.2 µM, partner dose 2 µM) | 90% | 28.8% | 79% | 82.6% | 78.7% | 3.25% | 15.2% | 79.4%
9 | CC(=O)O[C@@]12CO[C@@H]1C[C@H](O)[C@@]1(C)C(=O)[C@H](O)C3=C(C)[C@@H](OC(=O)[C@H](O)[C@@H](NC(=O)OC(C)(C)C)c4ccccc4)C[C@@](O)([C@@H](OC(=O)c4ccccc4)[C@H]21)C3(C)C [Docetaxel] + C#Cc1cccc(Nc2ncnc3cc(OCCOC)c(OCCOC)cc23)c1 [erlotinib] (first compound 0.0001 µM, partner dose 0.8 µM) | 42.8% | 36.8% | 32.3% | 49.8% | 36.4% | 37.8% | 28.9% | 35.3%
10 | Nc1ncn([C@H]2C[C@H](O)[C@@H](CO)O2)c(=O)n1 [decitabine] + COCC[n+]1c2c(n(Cc3cnccn3)c1C)C(=O)c1ccccc1C2=O [YM155] (first compound 0.1 µM, partner dose 0.0004 µM) | 54% | 93.5% | 59.8% | 80.1% | 76% | 83.2% | 101% | 70.7%
11 | CC(=O)O[C@@]12CO[C@@H]1C[C@H](O)[C@@]1(C)C(=O)[C@H](O)C3=C(C)[C@@H](OC(=O)[C@H](O)[C@@H](NC(=O)OC(C)(C)C)c4ccccc4)C[C@@](O)([C@@H](OC(=O)c4ccccc4)[C@H]21)C3(C)C [Docetaxel] + Nc1cccc2c1CN(C1CCC(=O)NC1=O)C2=O [lenalidomide] (first compound 0.0001 µM, partner dose 1 µM) | 47.3% | 50.9% | 38.6% | 66.8% | 38.4% | 43.6% | 38.5% | 41.5%
12 | Nc1nc(F)nc2c1ncn2[C@@H]1O[C@H](CO)[C@@H](O)[C@@H]1O [fludarabine] + Cc1nc(Nc2ncc(C(=O)Nc3c(C)cccc3Cl)s2)cc(N2CCN(CCO)CC2)n1 [dasatanib] (first compound 0.2 µM, partner dose 0.004 µM) | 79.5% | 24.3% | 76.9% | 79.9% | 60.8% | 7.04% | 16.7% | 76.7%
13 | CC(=O)O[C@@]12CO[C@@H]1C[C@H](O)[C@@]1(C)C(=O)[C@H](O)C3=C(C)[C@@H](OC(=O)[C@H](O)[C@@H](NC(=O)OC(C)(C)C)c4ccccc4)C[C@@](O)([C@@H](OC(=O)c4ccccc4)[C@H]21)C3(C)C [Docetaxel] + Cc1cc(Nc2cc(N3CCN(C)CC3)nc(/C=C/c3ccccc3)n2)n[nH]1 [ENMD2076] (first compound 0.0001 µM, partner dose 0.04 µM) | 55.6% | 61.3% | 37.2% | 56.4% | 41.2% | 46.5% | 48.5% | 66.9%
14 | Nc1ccn([C@@H]2O[C@H](CO)[C@@H](O)C2(F)F)c(=O)n1 [gemcitabine] + OCc1c[nH]c2ccccc12 [Indole-3-carbinol] (first compound 0.0004 µM, partner dose 0.8 µM) | 103% | 92.6% | 84.8% | 99.7% | 81.9% | 96.7% | 123% | 84.9%
15 | CC(=O)O[C@@]12CO[C@@H]1C[C@H](O)[C@@]1(C)C(=O)[C@H](O)C3=C(C)[C@@H](OC(=O)[C@H](O)[C@@H](NC(=O)OC(C)(C)C)c4ccccc4)C[C@@](O)([C@@H](OC(=O)c4ccccc4)[C@H]21)C3(C)C [Docetaxel] + CN1CCN(c2ccc3nc(-c4c(N)c5c(F)cccc5[nH]c4=O)[nH]c3c2)CC1 [Dovitinib] (first compound 0.0001 µM, partner dose 0.1 µM) | 32.3% | 35.5% | 30.7% | 61% | 31.1% | 44.9% | 26.9% | 31.7%
16 | Nc1ncn([C@H]2C[C@H](O)[C@@H](CO)O2)c(=O)n1 [decitabine] + C=CCNC1=C2C[C@@H](C)C[C@H](OC)[C@H](O)[C@@H](C)/C=C(\C)[C@H](OC(N)=O)[C@@H](OC)/C=C\C=C(/C)C(=O)NC(=CC1=O)C2=O [Tanespimycin] (first compound 0.1 µM, partner dose 0.002 µM) | 81.7% | 96% | 62.8% | 72.4% | 86.9% | 94.5% | 97.1% | 80.6%
17 | CC(=O)O[C@@]12CO[C@@H]1C[C@H](O)[C@@]1(C)C(=O)[C@H](O)C3=C(C)[C@@H](OC(=O)[C@H](O)[C@@H](NC(=O)OC(C)(C)C)c4ccccc4)C[C@@](O)([C@@H](OC(=O)c4ccccc4)[C@H]21)C3(C)C [Docetaxel] + CN(c1ncccc1CNc1nc(Nc2ccc3c(c2)CC(=O)N3)ncc1C(F)(F)F)S(C)(=O)=O [PF562271] (first compound 0.0001 µM, partner dose 0.08 µM) | 40.9% | 36.1% | 24.8% | 46.1% | 27.3% | 39.9% | 27.3% | 37.5%

From the supplement of paper PMC4604168 (melanoma cell lines)
